From PubChem BioAssay (NCATS)
The inconclusive results got no clear call from the source; some entries with a clear call stand among them for comparison. For some of these results: Where the call is inconclusive, the potency comes from a doubtful curve fit. Calls of active or inactive are those of the source. Unless noted, calls follow the shape of the dose curve; as a rule, active = well fitted curve in the direction sought with a large enough effect; inconclusive = small, poorly fitted or top-dose-only effect, or another doubt; inactive = no such curve, though single readings can be large; an effect the other way counts as inactive or inconclusive.

Tests used:
[1] = target: Glutathione peroxidase 1 (Homo sapiens) (UniProt P07203); assay: Primary qHTS Assay for Inhibitors of Recombinant Selenoprotein Glutathione Peroxidase 1 (GPX1) (AID 1845191); conditions: activity, negative = inhibition: at 48.8 µM (top of the series); also: potency is read from the fitted curve at half-maximal effect; nearly all actives have a fitted effect of over 65% in size
Method in brief: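 GR-coupled readout: NADPH consumption tracked by fluorescence, ex 340/em 450 nm, at t=0 and after 15 min at RT. Final mix 10 nM GPX1, 1 mM GSH, 0.5 mM CHP, 0.5 mM NADPH, 100 nM GR, 0.01% BSA, following 30 min enzyme–compound preincubation.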

[2] = Primary redox qHTS assay for identification of artifact compounds. (AID 1845223); conditions: Amplex Red/HRP redox cycling with DTT, fluorescence; redox activity (% of DA3003): at 53.8 µM (top of the series);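 also: 0% = DMSO and 100% = reference compound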
Method in brief: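 Redox-cycling detection via DTT (250 uM final) oxidation coupled to Amplex Red (25 uM)/HRP (250 mU/mL) in HBSS. 15 min preincubation plus 30 min after DTT, room temperature. Ex/Em 525/598 nm; 4-parameter Hill fit against DMSO and 10 uM DA3003.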

KB-3-1 = assay: Cytotoxic Profiling of Annotated Libraries Using Quantitative High-Throughput Screening (AID 1296008); conditions: Five cell lines viability, CellTiter-Glo ATP luminescence, 48-72 h; max response: active compounds read low; also: nearly all actives have a fitted effect of over 60% in size; also: potency is read from the fitted curve at half-maximal effect
Method in brief: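 Cells exposed to compounds for 48 or 72 hr at 37 degrees Celsius. Viability read as ATP-coupled luminescence with CellTiter-Glo after 10 min at room temperature.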

C33A = assay: Primary qHTS to identify gynecologic anti-cancer compounds using libraries of approved drugs and bioactive compounds (AID 1345084); conditions: Gynecologic cancer cell panel viability, ATPlite luminescence, 48 h; series mostly up to 57.5 µM; also: nearly all actives have a fitted effect of over 55% in size; also: potency is read from the fitted curve at half-maximal effect; as to activity change, negative = cytotoxicity: % is scaled to controls: 0 for no effect and ±100 for the full control effect
Method in brief: (§1)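 Five-concentration response, 48 h; readout is ATP-driven luciferase luminescence.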

CASKI = assay: as above; conditions: Gynecologic cancer cell panel viability, ATPlite luminescence, 48 h; series mostly up to 57.5 µM
Method in brief: as §1

Es-2 = assay: as above; conditions: Gynecologic cancer cell panel viability, ATPlite luminescence, 48 h; series mostly up to 57.5 µM
Method in brief: as §1

Hek293T = assay: as above; conditions: Gynecologic cancer cell panel viability, ATPlite luminescence, 48 h, control line for the selectivity index; activity change, negative = cytotoxicity: at 57.5 µM (top of the series) unless noted
Method in brief: as §1

JEG-3 = assay: as above; conditions: Gynecologic cancer cell panel viability, ATPlite luminescence, 48 h; series mostly up to 57.5 µM
Method in brief: as §1

OV90 = assay: as above; conditions: Gynecologic cancer cell panel viability, ATPlite luminescence, 48 h; series mostly up to 57.5 µM
Method in brief: as §1

PA-1 = assay: as above; conditions: Gynecologic cancer cell panel viability, ATPlite luminescence, 48 h; series mostly up to 57.5 µM
Method in brief: as §1

SKOV3 = assay: as above; conditions: Gynecologic cancer cell panel viability, ATPlite luminescence, 48 h; series mostly up to 57.5 µM
Method in brief: as §1

[3] = P-glycoprotein substrates identified in KB-8-5-11 adenocarcinoma cell line, qHTS therapeutic library screen (AID 1346987); also: nearly all actives have a fitted effect of over 65% in size; also: potency is read from the fitted curve at half-maximal effect; as to activity change, negative = cytotoxicity: % is scaled to controls: 0 for no effect and ±100 for the full control effect
Method in brief: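 Compounds are pinned in dose-response onto KB-8-5-11 cells (500 cells/well, colchicine-free medium) and left 72 h at 37 degree C. CellTiter-Glo luminescence then yields AC50 values.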

[4] = tested on: Zika virus NS2B-NS3 protease (unlinked complex); assay: Primary screen GU Rhodamine qHTS for Zika virus inhibitors: Unlinked NS2B-NS3 protease assay (AID 1347159); also: potency is read from the fitted curve at half-maximal effect; nearly all actives have a fitted effect of over 60% in size
Method in brief: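 Percent inhibition came from the 15-min rise in Rhodamine110 fluorescence (1.5 microM substrate, ~15% conversion), normalized to no-inhibitor and no-enzyme wells and Hill-fitted. Unlinked protease, 25 nM, pH 8.0 Tris buffer; compounds up to 114 microM, 15-min preincubation.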

[5] = tested on: Zika virus NS2B-NS3 protease (linked construct); assay: Primary screen NINDS Rhodamine qHTS for Zika virus inhibitors (AID 1347160); conditions: activity change, negative = inhibition: at 57.1 µM (top of the series) unless noted; also: potency is read from the fitted curve at half-maximal effect; nearly all actives have a fitted effect of over 55% in size
Method in brief: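 Rhodamine110-peptide cleavage (1.5 µM substrate) by 25 nM linked NS2B-NS3 enzyme at pH 8.0 (Tris, Tween 20), after 15 min RT preincubation with compounds; 15-min fluorescence change normalized to controls and Hill-fitted.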

[6] = target: Cytochrome P450 2D6 (Homo sapiens) (UniProt P10635); assay: Cytochrome P450 family 2 subfamily D member 6 (CYP2D6) small molecule antagonists: luciferase biochemical (cell-free) qHTS assay (AID 1645840; active = well fitted curve in the direction sought with a large enough effect in the repeat runs; inconclusive = weak or mixed curves; inactive = no such curve, though single readings can be large; an effect the other way counts as inactive or inconclusive)
Method in brief: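 P450-Glo CYP2D6 system: proluciferin substrate converted by enzyme to luciferin, read by luminescence proportional to activity. Enzyme-substrate mix with compound 10 min at room temperature, then NADPH regeneration 1 h before detection reagent.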

CAOV3 = assay: Primary qHTS to identify gynecologic anti-cancer compounds using libraries of approved drugs and bioactive compounds (AID 1345084); conditions: Gynecologic cancer cell panel viability, ATPlite luminescence, 48 h; activity change, negative = cytotoxicity: at 57.5 µM (top of the series); also: nearly all actives have a fitted effect of over 55% in size; also: potency is read from the fitted curve at half-maximal effect; as to activity change, negative = cytotoxicity: % is scaled to controls: 0 for no effect and ±100 for the full control effect
Method in brief: as §1

[7] = target: Ubiquitin carboxyl-terminal hydrolase 2 (Homo sapiens) (UniProt O75604); assay: qHTS Validation Assay for Inhibitors of Ubiquitin-specific Protease USP2a Using CHOP2 as the Reporter (AID 463106); conditions: USP2a cleavage of CHOP2 reporter, enzymatic; at 38.3 µM (top of the series);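 also: plate controls were DMSO for no effect and full inhibition by NEM for full effect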
Method in brief: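 Fluorescence read-out at Ex 485nm/Em 531nm after 60min RT, following addition of 25nM Ub-CHOP2 plus 25nM reporter substrate to USP2 core (10nM) pretreated 30min with compound. Data normalized to NEM full inhibition; concentration-response curves fitted.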

[8] = target: Glutaminase kidney isoform, mitochondrial (Homo sapiens) (UniProt O94925); assay: qHTS for Inhibitors of Glutaminase (GLS): LOPAC Validation (AID 624146); also: potency is read from the fitted curve at half-maximal effect; nearly all actives have a fitted effect of over 60% in size
Method in brief: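 Two-point fluorescence kinetic (t0, 30 min RT) for hKGA; glutamate detected via glutamate oxidase–HRP–Amplex Red. Substrate: 1 mM L-glutamine solution; buffer 45 mM KH2PO4, pH 8.2.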

[9] = target: Lysine-specific demethylase 5B (Homo sapiens) (UniProt Q9UGL1); assay: Optimization screen for KDM5B Histone Demethylases FDH coupled qHTS against the LOPAC library (AID 1347166); also: potency is read from the fitted curve at half-maximal effect
Method in brief: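 KDM5BDeltaAP (200nM final) in 50mM HEPES pH 7.5, 0.01% Tween-20 was preincubated with compound for 10 min at room temperature. A substrate mix of 12.5uM H3K4Me3, 25uM a-ketoglutarate, ascorbate, Fe2+, NAD+ and formaldehyde dehydrogenase was then added. NADH fluorescence (340/450 nm) was read initially and after 30 min.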

[10] = Primary qHTS for inhibitors of La Crosse Virus (LACV) - induced cell death in SH-SY5Y cells (AID 1508616); also: potency is read from the fitted curve at half-maximal effect
Method in brief: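 Rescue of virus-induced death was read as ATPLite luminescence after 6 days at 37C, scaled between DMSO wells with LACV and without virus. Cells were SH-SY5Y, 6000/well, infected at 0.01 MOI after compound addition.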

[11] = Primary qHTS for inhibitors of nuclear receptor binding SET domain protein 2 (NSD2) in an isogenic RCH-ACV NSD2 p.E1099K mutant (9B) (AID 1645876); also: % is scaled to controls: 0 for no effect and ±100 for the full control effect; nearly all actives have a fitted effect of over 70% in size
[12] = Primary qHTS for inhibitors of nuclear receptor binding SET domain protein 2 (NSD2) in an RCH-ACV wild type WT cells (2C) (AID 1645877); conditions: activity change, negative = cell killing: at 44.9 µM (top of the series) unless noted; also: % is scaled to controls: 0 for no effect and ±100 for the full control effect; nearly all actives have a fitted effect of over 70% in size
HeLa = assay: Primary qHTS to identify gynecologic anti-cancer compounds using libraries of approved drugs and bioactive compounds (AID 1345084); conditions: Gynecologic cancer cell panel viability, ATPlite luminescence, 48 h; activity change, negative = cytotoxicity: at 57.5 µM (top of the series); also: nearly all actives have a fitted effect of over 55% in size; also: potency is read from the fitted curve at half-maximal effect; as to activity change, negative = cytotoxicity: % is scaled to controls: 0 for no effect and ±100 for the full control effect
Method in brief: as §1
Tags tell the direction and shape of the fitted curve.

UniProt O94925, sequence (O94925 whole entry, looked up, canonical isoform): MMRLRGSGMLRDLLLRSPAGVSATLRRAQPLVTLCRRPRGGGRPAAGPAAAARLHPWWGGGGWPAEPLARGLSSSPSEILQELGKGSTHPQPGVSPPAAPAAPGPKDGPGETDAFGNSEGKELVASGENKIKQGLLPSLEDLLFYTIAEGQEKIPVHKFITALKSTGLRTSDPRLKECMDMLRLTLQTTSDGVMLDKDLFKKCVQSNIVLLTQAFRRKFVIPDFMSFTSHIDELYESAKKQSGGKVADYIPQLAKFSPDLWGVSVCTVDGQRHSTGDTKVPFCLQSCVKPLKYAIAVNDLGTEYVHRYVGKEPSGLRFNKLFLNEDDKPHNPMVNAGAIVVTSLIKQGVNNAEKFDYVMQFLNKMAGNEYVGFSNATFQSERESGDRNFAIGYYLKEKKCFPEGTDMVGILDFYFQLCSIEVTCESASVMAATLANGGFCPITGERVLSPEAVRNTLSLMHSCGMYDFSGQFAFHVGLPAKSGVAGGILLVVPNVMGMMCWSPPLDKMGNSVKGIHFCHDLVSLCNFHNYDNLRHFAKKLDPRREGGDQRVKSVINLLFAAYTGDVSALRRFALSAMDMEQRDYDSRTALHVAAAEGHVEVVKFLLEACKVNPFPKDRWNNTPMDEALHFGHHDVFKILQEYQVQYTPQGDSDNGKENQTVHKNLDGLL
UniProt O75604, sequence (O75604 whole entry, looked up): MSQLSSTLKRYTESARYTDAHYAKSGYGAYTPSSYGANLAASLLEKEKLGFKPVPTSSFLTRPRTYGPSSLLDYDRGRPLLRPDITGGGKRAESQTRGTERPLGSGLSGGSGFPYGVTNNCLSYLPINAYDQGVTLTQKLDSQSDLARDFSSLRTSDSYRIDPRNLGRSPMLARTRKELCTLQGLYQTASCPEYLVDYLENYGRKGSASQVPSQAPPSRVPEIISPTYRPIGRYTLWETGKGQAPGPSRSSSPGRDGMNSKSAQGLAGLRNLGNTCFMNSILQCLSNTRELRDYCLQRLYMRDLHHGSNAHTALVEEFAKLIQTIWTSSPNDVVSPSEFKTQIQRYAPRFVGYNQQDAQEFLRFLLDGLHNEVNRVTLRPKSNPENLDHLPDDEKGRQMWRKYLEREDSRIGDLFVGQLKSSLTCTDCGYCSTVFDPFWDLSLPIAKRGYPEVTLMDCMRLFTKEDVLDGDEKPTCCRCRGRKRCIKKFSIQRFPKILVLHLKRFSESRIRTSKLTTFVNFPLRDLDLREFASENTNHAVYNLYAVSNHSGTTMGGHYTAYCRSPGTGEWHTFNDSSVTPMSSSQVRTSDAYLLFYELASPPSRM
UniProt Q9UGL1, sequence (Q9UGL1 whole entry, looked up): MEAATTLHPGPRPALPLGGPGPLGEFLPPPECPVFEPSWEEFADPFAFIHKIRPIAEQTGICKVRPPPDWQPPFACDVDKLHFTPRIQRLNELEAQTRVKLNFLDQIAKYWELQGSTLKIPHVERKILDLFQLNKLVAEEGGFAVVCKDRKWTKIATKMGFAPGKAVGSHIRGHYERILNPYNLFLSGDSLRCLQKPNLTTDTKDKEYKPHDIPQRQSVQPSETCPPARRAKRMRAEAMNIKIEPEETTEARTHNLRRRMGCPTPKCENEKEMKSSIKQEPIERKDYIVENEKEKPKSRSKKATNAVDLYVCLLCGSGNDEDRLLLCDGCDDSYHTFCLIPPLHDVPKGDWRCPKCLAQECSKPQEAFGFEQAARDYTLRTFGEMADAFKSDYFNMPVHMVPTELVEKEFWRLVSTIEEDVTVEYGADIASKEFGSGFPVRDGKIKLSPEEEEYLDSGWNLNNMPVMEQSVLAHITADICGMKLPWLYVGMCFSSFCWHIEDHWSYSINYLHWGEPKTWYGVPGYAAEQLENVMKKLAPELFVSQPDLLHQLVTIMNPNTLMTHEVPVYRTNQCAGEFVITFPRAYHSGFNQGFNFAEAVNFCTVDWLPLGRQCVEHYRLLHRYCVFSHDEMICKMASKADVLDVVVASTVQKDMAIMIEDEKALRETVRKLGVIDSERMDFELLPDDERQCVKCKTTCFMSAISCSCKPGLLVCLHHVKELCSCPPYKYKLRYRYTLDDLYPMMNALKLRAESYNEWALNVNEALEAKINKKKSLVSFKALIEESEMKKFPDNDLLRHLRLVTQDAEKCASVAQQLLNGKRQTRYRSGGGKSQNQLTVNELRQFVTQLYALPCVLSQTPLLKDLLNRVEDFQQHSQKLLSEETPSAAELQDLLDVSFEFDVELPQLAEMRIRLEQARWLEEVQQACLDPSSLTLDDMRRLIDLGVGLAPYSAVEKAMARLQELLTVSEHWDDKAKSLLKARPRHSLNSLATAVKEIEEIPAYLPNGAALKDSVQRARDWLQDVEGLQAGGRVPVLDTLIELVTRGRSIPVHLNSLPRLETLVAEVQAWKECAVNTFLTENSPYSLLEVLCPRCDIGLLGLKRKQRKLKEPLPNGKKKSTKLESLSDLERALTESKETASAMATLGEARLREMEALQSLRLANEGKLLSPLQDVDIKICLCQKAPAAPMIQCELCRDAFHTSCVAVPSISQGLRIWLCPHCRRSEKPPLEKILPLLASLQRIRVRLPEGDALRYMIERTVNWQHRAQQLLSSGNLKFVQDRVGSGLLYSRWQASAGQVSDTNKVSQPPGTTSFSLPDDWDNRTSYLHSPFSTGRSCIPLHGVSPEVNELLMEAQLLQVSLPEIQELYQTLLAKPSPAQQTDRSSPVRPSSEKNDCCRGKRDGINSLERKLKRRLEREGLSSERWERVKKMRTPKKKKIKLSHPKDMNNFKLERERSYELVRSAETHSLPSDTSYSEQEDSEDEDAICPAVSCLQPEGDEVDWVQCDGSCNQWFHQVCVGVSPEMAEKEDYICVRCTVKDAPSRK
UniProt P07203, sequence (P07203 whole entry, looked up): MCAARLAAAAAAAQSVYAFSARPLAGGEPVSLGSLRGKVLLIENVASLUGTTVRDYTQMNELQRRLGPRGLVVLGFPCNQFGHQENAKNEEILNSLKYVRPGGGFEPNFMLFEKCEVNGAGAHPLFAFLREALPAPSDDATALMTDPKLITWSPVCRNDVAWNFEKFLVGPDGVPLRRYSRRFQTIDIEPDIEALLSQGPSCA
UniProt P10635, sequence (P10635 whole entry, looked up): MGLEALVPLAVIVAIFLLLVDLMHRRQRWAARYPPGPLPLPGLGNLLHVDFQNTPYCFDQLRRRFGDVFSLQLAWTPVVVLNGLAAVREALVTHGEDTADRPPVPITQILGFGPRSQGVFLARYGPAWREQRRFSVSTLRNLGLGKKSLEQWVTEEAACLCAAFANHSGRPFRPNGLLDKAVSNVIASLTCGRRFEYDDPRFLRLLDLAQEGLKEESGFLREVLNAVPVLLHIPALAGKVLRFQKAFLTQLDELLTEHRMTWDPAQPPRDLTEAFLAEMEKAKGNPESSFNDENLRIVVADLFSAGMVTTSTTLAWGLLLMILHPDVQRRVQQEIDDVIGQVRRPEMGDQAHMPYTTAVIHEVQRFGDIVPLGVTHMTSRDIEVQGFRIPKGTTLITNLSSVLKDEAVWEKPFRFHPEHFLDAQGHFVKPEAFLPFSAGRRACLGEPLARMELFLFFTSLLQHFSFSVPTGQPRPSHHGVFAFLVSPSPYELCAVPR

CC(C)C[C@@H]1NC(=O)[C@@H]2C[C@@]34C[C@@H]5[C@@]6(C)CCCC(C)(C)C6CC[C@@]5(C)N(c5ccccc53)[C@H]4N2C1=O (some centres undefined)
inconclusive: Potency [1] 9.88 µM [inhibitor, partial curve] | Potency (KB-3-1) 0.796 µM [inhibitor, full curve] | Potency (C33A) 0.794 µM [cytotoxic, full curve, poor fit] | Potency (CASKI) 4.47 µM [cytotoxic, partial curve, poor fit] | Potency (Es-2) 8.91 µM [cytotoxic, partial curve] | Potency (Hek293T) 2.82 µM [cytotoxic, full curve] | Potency (JEG-3) 20 µM [cytotoxic, partial curve, poor fit] | Potency (OV90) 7.08 µM [cytotoxic, partial curve, poor fit] | Potency (PA-1) 2.51 µM [cytotoxic, single point] | Potency (SKOV3) 1.58 µM [cytotoxic, full curve, poor fit]
inactive: Potency [2]

Cc1c(OCc2cccc(-c3ccc(C(=O)O)cc3)c2)cc2c(c1C)C(=O)C(C1CCCC1)C2 (centres undefined)
active: Potency [4] 1.78 µM
inactive: Potency [2] | Potency (Hek293T)
inconclusive: Potency [3] 16.4 µM [inhibitor, single point] | Potency [5] 1.78 µM [inhibitor, full curve] | Potency [6] 37.9 µM [inhibitor, single point] | Potency (KB-3-1) 29.1 µM [inhibitor, single point] | Potency (CAOV3) 39.8 µM [rising, single point] | Potency (CASKI) 0.794 µM [cytotoxic, single point] | Potency (SKOV3) 7.08 µM [rising, single point]

CCNC(=O)[C@H]1O[C@@H](n2cnc3c(N)nc(NCCc4ccc(CCC(=O)O)cc4)nc32)[C@H](O)[C@@H]1O
inactive: activity, negative = inhibition [7] 0.266% | Potency [3] | Potency [11] | Potency [12] | max response (KB-3-1) 2.49% | Potency (HeLa) | Potency (JEG-3) | Potency (OV90) | Potency (SKOV3)
inconclusive: Potency [8] 5.01 µM [inhibitor, full curve, poor fit] | Potency [9] 35.5 µM [inhibitor, partial curve, poor fit] | Potency [10] 1.26 µM [inhibitor, single point] | Potency (CAOV3) 0.891 µM [rising, full curve, poor fit]
